Data taken from the supplement of paper PMC3334620.
The full ranking holds about 33,000 sequences; the median of “E-score (-0.5 to 0.5)” is about -0.036, and the highest 2% start at about 0.37. This is one part of the list.

What follows are sequences tested against T1, Yer064c (UniProt P40041) (assay: PBM E-score (8-mer binding enrichment) (E-score (-0.5 to 0.5)); higher = stronger / more preferred TF binding; most listed sequences are background and not binding sites). Conditions: protein concentration: 200 nM; construct: GST-full length.
T1 sequence: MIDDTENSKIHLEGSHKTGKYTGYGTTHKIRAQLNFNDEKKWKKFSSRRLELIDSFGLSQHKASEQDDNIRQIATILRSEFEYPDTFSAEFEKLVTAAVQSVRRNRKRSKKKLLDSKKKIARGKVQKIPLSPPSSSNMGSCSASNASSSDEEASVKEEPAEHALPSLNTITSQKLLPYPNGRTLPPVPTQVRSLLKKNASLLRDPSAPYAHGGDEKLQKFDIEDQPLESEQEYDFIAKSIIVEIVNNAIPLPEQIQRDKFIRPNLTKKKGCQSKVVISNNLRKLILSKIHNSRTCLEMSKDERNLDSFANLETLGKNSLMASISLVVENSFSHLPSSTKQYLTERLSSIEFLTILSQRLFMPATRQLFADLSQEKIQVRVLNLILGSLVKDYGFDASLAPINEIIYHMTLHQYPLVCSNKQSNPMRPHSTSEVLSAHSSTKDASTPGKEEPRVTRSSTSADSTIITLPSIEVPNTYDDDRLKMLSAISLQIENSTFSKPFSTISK
How it was run: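 The E-score, a modified Wilcoxon-Mann-Whitney statistic, was computed by the Universal PBM Analysis Suite for every ungapped eight-base word pooled with its reverse complement. Scans behind it were normalised with masliner after bound GST-tagged yeast transcription factors were detected with fluorescent anti-GST. The proteins, at about 100-200 nM, had been applied to universal all-10-mer Agilent arrays made double-stranded by primer extension.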

| Sequence | PBM E-score |
| --- | --- |
| AAATACGG | -0.0165 |
| CCGTCAAG | -0.243 |
| CAACGGGG | 0.0671 |
| ATCACCAT | 0.191 |
| AACAATAA | 0.0809 |
| CCCAAGGA | -0.0414 |
| CTCGCCAC | -0.0736 |
| CATTTAAC | 0.125 |
| ATTCACCG | 0.0472 |
| GTATCGAC | 0.07 |
| ACCGAATG | -0.149 |
| GCAACACA | 0.0656 |
| AACCATGT | 0.159 |
| AGTCTAAC | 0.127 |
| AAACGCCG | -0.037 |
| GAGAGGGC | -0.203 |
| ACCTCTGA | 0.027 |
| CAGTGAAG | -0.0176 |
| CGAGATGA | 0.233 |
| CCCCTGGC | -0.266 |
| AACCTGGC | -0.18 |
| ATCTTGGG | -0.0917 |
| GTCCCAAC | 0.0262 |
| GACTAATC | 0.439 |
| GGTCACAA | 0.0763 |

| Sequence | PBM E-score |
| --- | --- |
| GTAGAGTA | 0.0307 |
| CAAGGTGC | -0.315 |
| ACTAATTC | 0.265 |
| GATGCATC | -0.0114 |
| AAAGGCCC | -0.237 |
| AGCATTCA | -0.0549 |
| ATCCATAA | 0.0276 |
| ACGGTAAT | 0.0587 |
| AGTGATTC | 0.405 |
| ACATCAGA | 0.0253 |
| AGCCTGTA | -0.0624 |
| GCGTAAGA | 0.0755 |
| AGACGTGC | -0.129 |
| AACGGAGG | -0.218 |
| AATAGGCG | -0.213 |
| GACTACCC | 0.42 |
| AAAATCCA | -0.125 |
| CGCCTACC | -0.132 |
| AACTCTGT | -0.0335 |
| ACCATCAC | 0.0299 |
| GCGAACTA | 0.0247 |
| AGCATTGC | -0.202 |
| CGACCGGC | -0.0607 |
| ACGTTTCA | -0.25 |
| GGGTACAA | 0.0531 |

| Sequence | PBM E-score |
| --- | --- |
| CGGCAAAG | -0.153 |
| GGTATCCA | -0.0854 |
| AAACATCT | 0.03 |
| AGTAATCG | 0.186 |
| ACATCCTG | 0.0753 |
| GTTGGTCA | 0.0845 |
| AACTAGCA | -0.00106 |
| AGATCTGC | -0.053 |
| AGACTGCT | 0.0961 |
| GCGTTCCC | -0.339 |
| GTCCTACA | 0.0711 |
| AGCATAAG | -0.0854 |
| GGACGTTA | -0.11 |
| ACTTGATC | 0.149 |
| ATCACATC | 0.143 |
| AATCTGTA | 0.0309 |
| ATACAAAT | -0.0539 |
| TAATAGCA | -0.09 |
| AAGCATCG | -0.272 |
| ATCTTCCG | -0.0471 |
| ACCGATCT | -0.255 |
| CGATGAAG | -0.0335 |
| GCCCCCGA | -0.231 |
| ATTTCTTA | 0.0476 |
| ACTGTTGG | 0.00718 |

| Sequence | PBM E-score |
| --- | --- |
| AGACGAAT | 0.00164 |
| AGGGGATA | -0.169 |
| CCTTAACA | -0.188 |
| AGAGTCTC | 0.332 |
| CCGCAATC | -0.00524 |
| ATTTAGTG | 0.127 |
| AGGTGTAT | -0.0724 |
| CTACTCCC | -0.025 |
| ATGATATA | 0.0245 |
| CTTGGGAC | 0.0238 |
| CGTAAACG | -0.157 |
| ACGGTTAC | 0.0048 |
| ATAGCACA | 0.0456 |
| GACCGCCC | -0.228 |
| AAGTCTGT | 0.0944 |
| CTACCGTA | 0.185 |
| ACCGTTTC | -0.159 |
| CGGGTTGC | -0.212 |
| CCGACAGC | -0.394 |
| ATACGAAG | 0.0534 |
| AAATAAAC | 0.0137 |
| CCCTTTAG | -0.0961 |
| CTACTAGA | 0.0781 |
| CAAATATG | -0.0122 |
| CTAACCAG | 0.188 |

| Sequence | PBM E-score |
| --- | --- |
| TAATGCAA | 0.0341 |
| ATCTCTCC | -0.182 |
| AAGACGAA | 0.0942 |
| AAACAGGA | -0.0996 |
| GATCAATC | 0.0711 |
| GCCAACGC | -0.143 |
| CAGCGCTG | -0.0171 |
| CCGTAGGA | -0.147 |
| CGTGGCCA | -0.285 |
| AATGCGCC | -0.252 |
| GGAAGGCA | -0.213 |
| CCATTTTA | -0.0471 |
| ATTTCTCC | 0.00421 |
| AACTTTCT | -0.0939 |
| ATAGTAGC | -0.149 |
| CGGATCGC | -0.172 |
| GGACGGCA | -0.224 |
| GTGTGACA | -0.139 |
| AAGCTGAA | -0.118 |
| ACTTGCCG | 0.0548 |
| ATCGAGTG | 0.139 |
| GGAGCACC | -0.293 |
| CTGACAAC | 0.0867 |
| AGTATGGC | 0.0363 |
| AGGTTTCG | -0.0887 |

| Sequence | PBM E-score |
| --- | --- |
| ATCAGGAC | 0.219 |
| GTCCGCGA | 0.041 |
| ATCGCCGC | -0.042 |
| AAGGTGCC | -0.144 |
| ACGGCTTC | -0.224 |
| GAGAATGA | 0.125 |
| GTTGATAA | 0.209 |
| GGCCTCCA | -0.169 |
| CGACCACG | -0.115 |
| CTGCAGCC | -0.105 |
| TCTTGTCA | 0.0805 |
| GATCACTA | 0.135 |
| AACGTCCG | -0.343 |
| TAAATTTA | 0.249 |
| CGATAATA | -0.0601 |
| CGTCCGTC | -0.269 |
| AGTCCGCA | 0.255 |
| CTTCGTCC | -0.159 |
| GAGCGGTA | -0.164 |
| ACAAAAGA | 0.106 |
| TAAAGCGA | 0.177 |
| ATGGGTAC | 0.239 |
| CACGATGC | -0.0934 |
| AACCATCT | 0.128 |
| AGTTTAGG | 0.0907 |

| Sequence | PBM E-score |
| --- | --- |
| AATGCAGA | 0.0123 |
| CCCCTCGC | -0.204 |
| CGTTCGAA | 0.184 |
| GCTGATAA | -0.0118 |
| GGACTACA | 0.262 |
| CGGAAAAC | -0.147 |
| CATAGATC | -0.00739 |
| TGGTGTAA | -0.0744 |
| AACTAAAA | 0.0564 |
| AAACTACG | -0.0191 |
| CACTCCCA | 0.0058 |
| CGCATGAG | 0.145 |
| AACGTATA | -0.088 |
| ATTCGTCG | 0.0523 |
| ATTACAAT | 0.0194 |
| ATGGCTGG | -0.105 |
| ACATCCGT | -0.00276 |
| CCGGGGTC | -0.134 |
| ATCAAGGC | 0.136 |
| ACGCAACA | -0.0207 |
| GATCACCA | 0.094 |
| CTCAGCAC | -0.11 |
